Laboratory results as given in the supplement of paper PMC10986608.
Some of the results follow. Repeats are few or missing, and single values can be far off.

What follows are compounds tested on Candida albicans DPL-15 (assay: growth (OD600) after compound treatment (apparently relative to screen median) (relative growth (fraction; screen median 1.02)); DPL-15 is a caspofungin-resistant clinical isolate; higher = more fungal growth (less antifungal activity)). Conditions: 25 µM; RPMI 1640; 48 h; 30 °C.

Row | Compound | growth
1 | COC(=O)C1=C(C)N(Cc2ccc(Cl)cc2)C(=S)NC1c1ccccc1Cl (configuration not stated) | 0.973
2 | COC(=O)c1nnc(C(=O)NCc2ccccc2)c2[nH]c3ccccc3c12 | 1.18
3 | COc1oc(C)cc(=O)c1-c1ccc(Br)cc1 | 1.02
4 | COC(=O)C1=C(C)N(C)C(NCc2ccccc2C(F)(F)F)=NC1c1ccccc1 (configuration not stated) | 0.954
5 | COC(=O)c1[nH]c2ccccc2c1[C@]12CCN(C(=O)Cc3cccc(F)c3F)[C@H]1Nc1ccccc12 | 1.01
6 | COc1ccc(S(=O)(=O)N2CCCc3nc(-c4ccc(Br)cc4)ccc32)cc1 | 0.965
7 | CC(=O)OC[C@H]1O[C@H](C#Cc2cc(C)cc(C)c2)C=C[C@@H]1OC(C)=O | 0.724
8 | COC(=O)CC/C=C/[C@@]12Oc3cc(OC)c4c(C)cc(O)c5c4c3[C@H](OC5=O)[C@@H]1C[C@@H](C)O2 | 1.03
9 | CCOC(=O)CN1C(=O)N[C@H](c2ccc(Br)cc2)C(C(C)=O)=C1C | 0.957
10 | O=C1C2=C(C(c3ccccc3)=NCCN2)C(c2ccccc2)N1Cc1ccccc1 (configuration not stated) | 0.878
11 | COC(=O)[C@@H]1[C@@H](c2ccccc2)[C@]2(c3ccc(OC)cc3)Oc3cc(OC)cc(OC)c3[C@@]23NC(C2CCCCC2)=N[C@@]13O | 0.889
12 | COc1ccc2c(c1)[C@@H](NS(=O)(=O)c1c(C)noc1C)[C@H](C)[C@H]2c1ccccc1 | 0.946
13 | CC(=O)C1=C(C)Oc2ccccc2[C@@H]1c1ccccc1 | 0.972
14 | CC(=O)N[C@@H]1[C@@H](C)[C@H](OCc2ccccc2)[C@]23C=CC=C[C@H]2[C@]13CCN1CCOCC1 | 1.29
15 | CC(C)Cc1n[nH]c2c1C(c1ccc(F)cc1)N(CC(C)(CO)CO)C2=O (configuration not stated) | 0.91
16 | O=C1c2ccccc2[C@@H](c2ccccc2)[C@@H]1CCCO | 0.986
17 | CC(C)CCc1cc(OCC(N)=O)cc2oc3ccccc3c(=O)c12 | 1.05
18 | COc1ccc([C@H]2C[C@@H](c3ccccc3)c3cc4c(cc3O2)OCO4)cc1 | 0.897
19 | CC(=O)C1=C(C)N(Cc2ccc(Cl)cc2)C(=S)NC1c1ccccc1Br (configuration not stated) | 0.948
20 | O=S(=O)(c1ccccc1)N1CCCc2nc(-c3ccc(F)cc3)ccc21 | 0.839
21 | CO[C@@H]1CCN(C(=O)c2c(O)cc(O)cc2Nc2ccnn2C)C1 | 1.05
22 | C=CC[C@H]1C[C@@]23C[C@H](CC=C)C(C)(C)[C@@](CC=C)(C(=O)C(C(=O)c4ccccc4)=C2OC1(C)C)C3=O | 0.941
23 | CC(C)n1cc(Nc2cc(O)cc(O)c2C(=O)N2CC[C@@H](N(C)C)C2)cn1 | 1.09
24 | COc1cc(OC)c2c(c1)O[C@@]1(c3ccc(OC)c(O)c3)[C@H](c3ccccc3)[C@@H](C(=O)N(C)OC)[C@@H](O)[C@@]21O | 1.05
25 | CC1(C)CNC(=O)C(O)CNC(=O)c2cccc(c2)-c2[nH]ncc2C1 (configuration not stated) | 1.13
26 | COc1ccc(C[C@H]2CO[C@H](c3ccc(OC)cc3)[C@H]2CO)cc1 | 1.01

Row | Compound | growth
27 | COc1ccc(-c2oc3cc(OC)cc(OC)c3c(=O)c2OCC#Cc2ccccc2)cc1 | 0.953
28 | CC#CCCN1C(=O)NC(c2ccccc2)C(C(C)=O)=C1C (configuration not stated) | 1.05
29 | Cc1ccc(C2C3=C(NC(C)(C)CN=C3C(C)C)C(=O)N2c2ccccc2)cc1 (configuration not stated) | 0.937
30 | COc1ccc(N2C(=O)c3[nH]nc(CC(C)C)c3C2c2ccccc2Br)cc1F (configuration not stated) | 0.901
31 | O[C@H]1C[C@@H](c2ccccc2)[C@]2(c3ccc(Cl)cc3)Oc3cc(OCCN4CCCC4)ccc3[C@]12O | 1.17
32 | CC(=O)C1=C2C=CCCN2C(=O)NC1c1ccc(C)cc1 (configuration not stated) | 0.902
33 | COC(=O)C1=C(C)N(CCc2cccs2)C(=S)NC1c1ccc(OC)cc1 (configuration not stated) | 0.897
34 | Cn1nc(-c2ccc(C(F)(F)F)cc2)cc1N | 1.02
35 | CC(C)OCCCNC(N)=S | 1.07
36 | O=C(NC(CC1=CCCCC1)c1ccc2c(c1)OCO2)C(F)(F)F (configuration not stated) | 1.12
37 | COC(=O)C1=C(C)N(Cc2ccc(C(F)(F)F)cc2)C(NCC2CC2)=NC1c1ccc(Cl)cc1 (configuration not stated) | 1.06
38 | CC[C@@H](C)[C@H]1O[C@]2(CC[C@@H]1C)C[C@@H](O)C[C@@H](CCO)O2 | 1
39 | COc1cc([C@H]2c3c(O)c(O)c4oc5ccccc5c(=O)c4c3[C@@H]3C=C(C)CC(C)(C)[C@H]23)c2c(=O)c3ccccc3oc2c1O | 1.02
40 | COCCN1C(=O)N[C@@H](c2ccco2)C(C(=O)OC)=C1C | 1
41 | COc1ccc2c(=O)c3c(CC=C(C)C)cc(OC)c(O)c3oc2c1 | 1.07
42 | CC[C@@H](O)COc1cc2c(cc1C1(c3cc4c(cc3OC[C@H](O)CC)OCO4)C(=O)Nc3c(F)cccc31)OCO2 | 0.963
43 | COC(=O)c1c(-c2ccccc2Br)c2c(c3c4ccccc4n(S(=O)(=O)c4ccc(C)cc4)c13)C(=O)N(C)C2 | 1
44 | COc1ccc(N2C(=O)c3[nH]nc(CC(C)C)c3C2c2ccsc2)cn1 (configuration not stated) | 0.949
45 | CC1(C)COC2(OC1)C(CO[Si](C)(C)C(C)(C)C)=C[C@H](O)[C@@H]1O[C@@H]12 | 0.893
46 | COC(=O)C1=C(CCl)NC(=O)N(C(C)=O)C1c1ccccc1 (configuration not stated) | 1.27
47 | CCOCN1CC(=O)N(COCC)CC1=O | 1.18
48 | COC(=O)C1=C(C)N(Cc2ccccc2)C(=S)NC1c1cccc(Br)c1 (configuration not stated) | 0.946
49 | COc1cc2c(cc1OC)CN(CCc1ccc(NC(=O)c3cccc4c(=O)c5cccc(O)c5[nH]c34)cc1)CC2 | 0.858
50 | O=c1c(O)c(-c2ccccc2Br)oc2ccccc12 | 1.79
51 | COc1ccc([C@@H]2[C@@H](C(=O)Nc3ccccc3)[C@H](C(=O)Nc3ccccc3)[C@H]2c2ccc(OC)c(OC)c2OC)c(OC)c1OC | 1.07
52 | C=CCNC1=NC(CCc2ccccc2)C(C(=O)OC)=C(C)N1C (configuration not stated) | 0.802
